Data reported in PubChem BioAssay AID488896 (Broad Institute, 2010).
The whole screen tested about 320,000 compounds, of which about 3,100 (0.97%) were called active. This list was built around the results that the source calls inconclusive (neither active nor inactive); the mix of calls is not that of the screen.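 How the source made its calls: active means mean replicate inhibition of at least 70% and a set share of replicates each scoring 70 or more; inconclusive means meets just one of the two criteria; inactive means fails both criteria.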

target: Scavenger receptor class B member 1 (Mus musculus) (UniProt Q61009); assay: inhibitors of SR-BI mediated HDL lipid uptake, primary screen, ldlA[mSR-BI] cells, fluorescence, single point (AID 488896); details: ldlA[mSR-BI] CHO cells, DiI-HDL uptake fluorescence, 3 h; at 12.5 µM; active compounds read high;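 further: 0% = median of neutral control wells and 100% = median of positive control wells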
Sequence of UniProt Q61009 (Q61009 whole entry, looked up): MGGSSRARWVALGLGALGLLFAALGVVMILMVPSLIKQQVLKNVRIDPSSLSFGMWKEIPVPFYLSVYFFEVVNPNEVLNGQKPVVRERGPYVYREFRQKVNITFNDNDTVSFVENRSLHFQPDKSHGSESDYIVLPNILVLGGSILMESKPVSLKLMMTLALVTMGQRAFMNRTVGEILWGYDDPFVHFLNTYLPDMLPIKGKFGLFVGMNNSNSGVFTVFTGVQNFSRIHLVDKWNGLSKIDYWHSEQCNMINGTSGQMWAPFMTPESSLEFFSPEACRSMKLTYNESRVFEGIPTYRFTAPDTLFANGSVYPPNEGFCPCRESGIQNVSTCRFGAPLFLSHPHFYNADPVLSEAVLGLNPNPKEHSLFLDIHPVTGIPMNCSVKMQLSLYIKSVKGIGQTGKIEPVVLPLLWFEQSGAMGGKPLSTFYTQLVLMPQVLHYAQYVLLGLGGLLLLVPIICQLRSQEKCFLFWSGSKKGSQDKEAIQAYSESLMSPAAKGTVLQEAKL

Compound	inhibition
O=C(COc1ccc(Cl)cc1Cl)N1CCNC1=O	inactive: -9.68%
CC1=CC(C)(C)N(C(=O)CSc2nnc(-c3ccc(C)cc3)o2)c2ccc(C)cc21	inconclusive: 70.6%
CCn1c(C(=O)OC)cc2c1ccn2-c1ccc(F)cc1	active: 78.1%
O=C(N/N=C/c1ccccc1O)C(=O)Nc1ccccn1	active: 88.1%
CCC(CO)Oc1cc(NC(=O)c2ccc(OC)cc2)c2ncn(C(C)C)c2c1 (stereo not given)	inconclusive: 72.9%
O=[N+]([O-])c1ccc(N/N=C/c2cn(Cc3ccc(F)cc3)c3ccccc23)nc1	inconclusive: 73.6%
Cc1cc(C(=O)Nc2cccc(-c3ccc(N4CCOCC4)nn3)c2)ccc1[N+](=O)[O-]	inconclusive: 70.3%
COc1ccc(C(=O)N2CCN(c3ccc([N+](=O)[O-])c(NCCc4ccc(OC)c(OC)c4)c3)CC2)cc1	inconclusive: 74.5%
COc1cc(OC)cc(-c2c(-c3ccc(F)cc3)c3cc(-c4ccc5cc[nH]c5c4)ccc3n2C)c1	inconclusive: 65.5%
CCC(=O)N(CC)c1nc(-c2ccc(OC)cc2)cs1	active: 87.1%
CNC(=O)c1cc(Nc2nnc(-c3ccc(C)c(S(N)(=O)=O)c3)c3ccccc23)ccc1OC	inactive: 66.6%
COc1ccc2nc(NC(=O)c3cccc(-c4cc5ccccc5oc4=O)c3)sc2c1	active: 77.3%
Cc1cc(C(=O)Nc2cccc(S(=O)(=O)N3CCCCC3)c2)c2ccccc2n1	inconclusive: 72.9%
CCOC(=O)c1ccc(NC(=O)N2CCN(c3ccccc3OC)CC2)cc1	inconclusive: 71%
COc1ccc(-c2[nH]c(-c3cccc(OC)c3)nc2SCC(=O)NC2CCCC2)cc1	inconclusive: 72.7%
O=C(NNC(=O)C1CCN(S(=O)(=O)c2ccccc2C(F)(F)F)CC1)c1ccccc1O	active: 100%
COC(=O)c1cc(NC(=O)Nc2cc(OC)ccc2OC)cc(C(=O)OC)c1	inconclusive: 75.4%
CC(=O)c1cccc(NC(=O)c2ccc3c(Cl)c4c(nc3c2)CCCC4)c1	inconclusive: 71.3%
COc1cccc(NC(=O)c2sc3nc(N4CCOCC4)c4c(c3c2N)CCCC4)c1	inconclusive: 71.6%
Cc1ccc(-c2cc(C(=O)Nc3cc(C)on3)c3ccccc3n2)c(C)c1	active: 78.2%
CCOC(=O)c1nn(-c2ccc(OCC)cc2)c2nc(-c3ccco3)c(C#N)c(=O)n12	inactive: 20.8%
COC(=O)N/N=C/c1cc(N=Nc2ccccc2Cl)ccc1O	inactive: 14%

Compound	inhibition
COc1ccc2nc(N/C(N)=N/C(=S)Nc3c(C)cccc3C)nc(C)c2c1	inconclusive: 70.8%
COc1ccc(OCC(=O)N2CCN(c3nnc(-c4ccc(C)cc4)c4ccccc34)CC2)cc1	active: 76.7%
O=C(CCc1ccccc1)Nc1ccccc1[N+](=O)[O-]	inactive: -6.36%
CCOC(=O)c1c(NC(C)=O)sc2c(OCC(O)CN(CC)CC)c(Br)ccc12 (stereo not given)	active: 82.7%
N#Cc1ccc(/C=N/NC(=O)c2cccc(S(=O)(=O)N3CCOCC3)c2)cc1	inconclusive: 75.7%
C[n+]1c(-c2ccccc2)cc2c(=Cc3ccc([N+](=O)[O-])cc3)c3ccccc3n21	inconclusive: 74%
Cc1ccc(NC(=O)c2ccc(C(C)(C)C)cc2)cc1-n1cnnn1	inconclusive: 71.8%
CC(Oc1cccc(Cl)c1)C(=O)Nc1cc(S(=O)(=O)N2CCOCC2)ccc1N1CCCCC1 (stereo not given)	inconclusive: 72.4%
COc1cc(C(C)=O)ccc1OCC(O)CN1CCN(c2cc(C)cc(C)c2)CC1 (stereo not given)	inactive: 8.04%
O=C(Nc1ccc(-c2nc3c(ccc4ccccc43)o2)cc1)c1ccco1	inconclusive: 73.6%
Cc1ccc(NC(=O)CN(C)C(=O)c2cccc(S(=O)(=O)NCc3ccccc3)c2)cc1	inactive: 22.8%
Nc1c(C(=O)Nc2nc3ccccc3s2)sc2nc(-c3cccs3)ccc12	inconclusive: 71.2%
O=C(CSc1ncnc2[nH]ncc12)Nc1nc(-c2ccc(F)c(F)c2)cs1	inactive: 52.4%
O=C(NCC1CCCC(CNC(=O)N2CCc3ccccc32)C1)N1CCc2ccccc21 (stereo not given)	inactive: 65.1%
CC(C)c1c(Cl)c(O)c(-c2ccccc2)c(=O)n1-c1ccc(F)cc1	inactive: -2.51%
Cc1ccc(Cn2cc(CCC(=O)O)c3ccccc32)cc1	inactive: -41.8%
O=C(CCN1C(=O)[C@@H]2Cc3ccccc3CN2C1=O)N[C@H](Cc1ccccc1)C(=O)O	inactive: -15.7%
O=C(N/N=C/c1ccc2c(c1)OCO2)c1ccc(NC(=O)c2ccccc2Cl)cc1	inconclusive: 72.7%
O=C1OCCN1N1CCOC1=O	inactive: -16.3%
CN1CCN(S(=O)(=O)c2cccc(C(=O)Nc3sc4c(c3-c3nc5ccccc5[nH]3)CCCC4)c2)CC1	inconclusive: 70.1%
COc1ccc(Nc2nc(N(C)c3ccccc3)nc(N)c2[N+](=O)[O-])cc1	inactive: -138%
O=C(Nc1nc(-c2ccc(F)cc2)cs1)c1cnccn1	inactive: 13.9%

Compound	inhibition
CC(=O)Nc1sc(/C(C#N)=C\c2cccc(Cl)c2)nc1-c1ccc(C)cc1	active: 81.6%
NC(=S)n1[nH]c(-c2ccc([N+](=O)[O-])cc2)c(N=Nc2cccc(Cl)c2)c1=O	inconclusive: 70.7%
Cc1ccc(S(=O)(=O)N2CCCCC2)cc1C(=O)OC(C)C(=O)NC1CCCCC1C (stereo not given)	inconclusive: 71.2%
CC(C)(C)c1ccc(OCCCC(=O)NNC(=O)c2ccccc2O)cc1	active: 120%
CCOc1ccc(OCc2ccc(C(=O)NN=Cc3ccc[nH]3)cc2)cc1	inconclusive: 70%
CCCCN1C(=O)c2ccc(C(=O)N(C)CC(=O)Nc3ccc(OCC)c(OCC)c3)cc2C1=O	inconclusive: 72.5%
O=C(Nc1ccccc1)NC1CC2CCC(C1)N2Cc1nnnn1Cc1ccc2c(c1)OCO2 (stereo not given)	inconclusive: 71.4%
COc1ccc(-c2nnn(-c3cc(Cl)cc(Cl)c3)c2N)cc1	inconclusive: 70.3%
CCCc1nnc(NC(=O)CCC(=O)N2CCN(Cc3cc(Cl)ccc3OC)CC2)s1	inconclusive: 70.6%
CCOc1ccc(CCNC(=O)c2ccc(OCc3c(C)noc3C)cc2)cc1OCC	inconclusive: 70.2%
Cc1ccc2c(C)nc(Nc3nc(CSc4nnnn4-c4ccccc4)cc(=O)[nH]3)nc2c1	inactive: -6.5%
CN(C)c1ccc(C=C2C(=O)OC(C)(C(C)(C)C)OC2=O)cc1 (stereo not given)	inconclusive: 71.9%
O=c1cc(Cl)[nH]c(=O)n1Cc1ccc(F)cc1	inactive: 0.856%
Cc1ccc(NC(=O)CN(C)S(=O)(=O)c2cccc3nsnc23)cc1Cl	inconclusive: 88.9%
COc1ccccc1C(=O)N/N=C(\C)c1ccc(NC(=O)C2CC2)cc1	inconclusive: 71.2%
[O-]/[N+](=C\C=C\c1ccccc1)c1ccccc1	inactive: -10.5%
COC(=O)c1cccc(NC(=O)Nc2ccccc2OC)c1	active: 80.8%
CC(CNC(=S)Nc1cc(F)cc(F)c1)CSc1ccc(Cl)cc1 (stereo not given)	inactive: 43%
COc1ccc(CN2CCc3ccc(NC(=O)CCc4ccccc4OC)cc3C2)c(O)c1	active: 71.7%
CCCCNc1c(-c2ccc(SC3CCCCC3)c(OC)c2)nc2ccc(Cl)cn12	active: 75.2%
CCOc1ccc(NC(=O)c2ccc(NC(=S)NC3CCCCC3)cc2)cc1	inconclusive: 73.7%
CCOc1cc(NC(=O)c2ccccn2)c(OCC)cc1NC(=O)c1ccccc1	inactive: 56.8%

Compound	inhibition
COc1ccccc1NC(=O)NCCN1CCN(C(=O)Nc2ccccc2OC)CC1	inconclusive: 72.3%
COc1ccc2oc(=O)c(-c3csc(Nc4ccc(O)cc4)n3)cc2c1	active: 84%
O=C(Nc1ccc(Cl)cc1)c1ccc(CN2CCc3ccccc3C2)cc1	inactive: 37.7%
COc1ccc2oc(C(=O)N3CCCc4ccccc43)c(C)c2c1	inconclusive: 73.9%
C/C(CC(=O)Nc1ccc(Cl)c(C(F)(F)F)c1)=N\NC(=O)c1cc2ccccc2cc1O	active: 112%
COC(=O)Cn1c2ccccc2c2nc3ccccc3nc21	active: 98.3%
CCOC(=O)c1c(C)[nH]c(C(=O)OCC(=O)NCCc2ccc(OCC)c(OCC)c2)c1C	inconclusive: 75.6%
COc1ccc(/C=N/NC(=O)CN2CCCc3ccccc32)c(OC)c1	inconclusive: 72.3%
CCNC(=O)c1c(NC(=O)c2cc(-c3cc(C)cc(C)c3O)n[nH]2)sc2c1CCCC2	inconclusive: 72.9%
COc1ccc(/C=C\C(=O)NCc2ccc3c(c2)cc(C)n3C)cc1OC	inconclusive: 73%
Cc1cc(-c2n[nH]c(=S)n2Cc2ccco2)nn1C	inactive: -15.6%
CCc1nnc(NC(=O)CSc2nnc(-c3ccccc3OC)n2-c2ccccc2)s1	inactive: -53.1%
COc1ccc(/C=N/NC(=O)c2ccc(COc3cccc4cccnc34)cc2)cc1OC	inconclusive: 74%
CCOC(=O)c1ccc(NC(=O)CCc2ccc(CC)o2)cc1	inactive: 20%
CC[C@@H](C)[C@H](NC(=O)Cc1c(C)c2cc3c(C)c(C)oc3c(C)c2oc1=O)C(=O)O	active: 94.5%
Cc1ccc(-c2nnc(N3CC(C)OC(C)C3)c3ccccc23)cc1 (stereo not given)	inconclusive: 70.5%
Cc1cccc(-c2nc(Nc3ccc(O)cc3)c3ccccc3n2)c1	active: 74.9%
Cc1nc(C(=O)Nc2ccccc2Cl)cc2c1[nH]c1ccccc12	inconclusive: 70.4%
Oc1ccc(Oc2ccc3c(C(F)(F)F)cc(C(F)(F)F)nc3n2)cc1	inconclusive: 72%
